Data reported in PMC7819943, “Rice protein-binding microarrays: a tool to detect cis-acting elements near promoter regions in rice”.
This is one part of the list.

The sequences below were run against T1, OsWOX13 (Oryza sativa, UniProt Q5QMM3 1-267) (assay: protein-binding microarray (RPBM); PBS, 2% BSA, 51.3 ng/ul salmon testes DNA, 50 uM zinc acetate, 200 nM TF, 25 C, 1 h; high values mean tight binding). Conditions: protein: recombinant; tags: N-terminal polyhistidine and DsRed monomer fusion (pET32a); label: CyDye5-dUTP incorporated in the synthesized complementary strand; 3' TTTTT single-stranded linker to array surface; dsDNA, one strand shown.
T1 sequence: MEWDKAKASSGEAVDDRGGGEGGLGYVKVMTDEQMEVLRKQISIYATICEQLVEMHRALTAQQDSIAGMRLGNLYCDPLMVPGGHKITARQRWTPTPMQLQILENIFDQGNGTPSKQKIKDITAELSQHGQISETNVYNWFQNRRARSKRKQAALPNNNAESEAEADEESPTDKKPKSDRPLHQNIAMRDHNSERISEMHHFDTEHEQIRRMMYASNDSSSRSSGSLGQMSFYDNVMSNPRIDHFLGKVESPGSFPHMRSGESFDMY
How it was run: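 Transcription factors were each fused at the N-terminus to a polyhistidine tag plus DsRed and expressed in E. coli BL21-CodonPlus before Ni–NTA purification. Binding to a double-stranded custom Agilent array was carried out with 200 nM protein at 25 °C for 1 h in PBS, 2% BSA, salmon testes DNA and 50 µM zinc acetate. The binding signal is per-feature fluorescence intensity, in arbitrary units, on an Axon 4000B scanner.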
In the case of “CACCGGATCTGATTACCCCTCTCTCTCTCTCTCTCTCTCTCGGAGTCACCTAGTGCAG”, the binding signal was 3920 fluorescence intensity (a.u.).
In the case of “CGTTCTGTCATTTGGGTTTTATGTTTGTTCTCTCTTGTTTCGGAGTCACCTAGTGCAG”, the binding signal was 5830 fluorescence intensity (a.u.).
“TGCTGATTATACTACTGTGTAAACAATGGCCCTGTTTGATCGGAGTCACCTAGTGCAG” was tested, and the binding signal was 29500 fluorescence intensity (a.u.).
In the case of “GGCTATCCAAGATTTCTGCTAATTATTTCACAGAAAATGCCGGAGTCACCTAGTGCAG”, the binding signal was 5300 fluorescence intensity (a.u.).
In the case of “TTCGTTCTTGATTATCCATTTGTTGTTAATAATCTTCTGTCGGAGTCACCTAGTGCAG”, the binding signal was 15500 fluorescence intensity (a.u.).
For “CTCTGAGTCAGTGACAAATTGTTGAGCTAAATTGTGTCCTCGGAGTCACCTAGTGCAG”, the binding signal was 4370 fluorescence intensity (a.u.).
“TAAAATAAATTATAGATTTTGCCTATAAACTGTGAGATGACGGAGTCACCTAGTGCAG” was tested, and the binding signal was 9780 fluorescence intensity (a.u.).
With “CTCGATTAGCTGTCAACGCTGTTTGGGCCGGCGAGCTCCACGGAGTCACCTAGTGCAG” the binding signal was 13600 fluorescence intensity (a.u.).
“CGTCCGGCTCCGTTGGCCAATCAATCCGATCGAGCCAAGCCGGAGTCACCTAGTGCAG” was tested, and the binding signal was 3480 fluorescence intensity (a.u.).
In the case of “ACACAATTATGTCAAGTTCAATTCTCAAGTTTGAATTGGGCGGAGTCACCTAGTGCAG”, the binding signal was 5050 fluorescence intensity (a.u.).
For “GTGCGATGAAACAAATCAATTATCAATTATGTACTCTTTCCGGAGTCACCTAGTGCAG”, the binding signal was 14100 fluorescence intensity (a.u.).
With “GGTTGATCCAAATGTCATCTTTAATTATTGAACCCGACGTCGGAGTCACCTAGTGCAG” the binding signal was 3160 fluorescence intensity (a.u.).
“TTAAACTGTCATACATACATAACTTTTCAGTCACATCGTACGGAGTCACCTAGTGCAG” was tested, and the binding signal was 5020 fluorescence intensity (a.u.).
For “ATGAAGATTGAATAGATATACTATACTACACATGGGTTAACGGAGTCACCTAGTGCAG”, the binding signal was 18700 fluorescence intensity (a.u.).
With “CTTTTCTCGGACTAAATTGGCACGTGACCAGCTGAGGGAACGGAGTCACCTAGTGCAG” the binding signal was 6480 fluorescence intensity (a.u.).
With “GAACTAAACAGGCCCTTAATTAGCTGTTGCAATCGTCCCTCGGAGTCACCTAGTGCAG” the binding signal was 31900 fluorescence intensity (a.u.).
In the case of “CTTTTAAATAATCAGAGTAATTAAAGGTAAGGGCGATCTGCGGAGTCACCTAGTGCAG”, the binding signal was 7540 fluorescence intensity (a.u.).
In the case of “CCAAGATTGTATCAATATGAATTTCACGCTGTCCGATGCGCGGAGTCACCTAGTGCAG”, the binding signal was 7490 fluorescence intensity (a.u.).
“GGCAGGTAATTGGGAGGGAATTCCTCCTTTACTTTGTCTACGGAGTCACCTAGTGCAG” was tested, and the binding signal was 18400 fluorescence intensity (a.u.).
In the case of “TCCACCCTTCATGTGATTGGTGGTCTGCCGACTGCTTCTGCGGAGTCACCTAGTGCAG”, the binding signal was 11700 fluorescence intensity (a.u.).
For “AACCAATCAGCGACACCGTCTAACGGCTCCATTTGATTAGCGGAGTCACCTAGTGCAG”, the binding signal was 14300 fluorescence intensity (a.u.).
For “AATATAAATTAAATTTTATTTGCTAAAATTAATATCATTGCGGAGTCACCTAGTGCAG”, the binding signal was 15000 fluorescence intensity (a.u.).
For “ATTGATTTTGATAACGCATATTTCTAGATGTCTACGCGTTCGGAGTCACCTAGTGCAG”, the binding signal was 28500 fluorescence intensity (a.u.).
In the case of “GTGACTAATTCTGAATGGCAATGTTCTCCACGGAGCTGTCCGGAGTCACCTAGTGCAG”, the binding signal was 6640 fluorescence intensity (a.u.).
With “TATGTAGCAATTAATCACATTCGTTCGCTATAAATCCGATCGGAGTCACCTAGTGCAG” the binding signal was 3560 fluorescence intensity (a.u.).
“TATTTAATTCTACAAATCAACATGCAATCATATCCAGTTACGGAGTCACCTAGTGCAG” was tested, and the binding signal was 16900 fluorescence intensity (a.u.).
“TGGAAACATAAATTTTGATGTTACCCTGTGCAACCCTGCACGGAGTCACCTAGTGCAG” was tested, and the binding signal was 4870 fluorescence intensity (a.u.).
For “TATCAGTCTGCGTTTAATAATTTAAATTAGTGTCCGTATACGGAGTCACCTAGTGCAG”, the binding signal was 16300 fluorescence intensity (a.u.).
In the case of “GCTACAATAATTAATCAATTAATTAAATTAAATTAAGTGGCGGAGTCACCTAGTGCAG”, the binding signal was 55300 fluorescence intensity (a.u.).
With “TAAAACTCAATCAATTATAAGTTAATACCATCTTATTTTACGGAGTCACCTAGTGCAG” the binding signal was 8920 fluorescence intensity (a.u.).
With “TTAAAATTAACAATTGTAGATAATACAGAGTATGTTTTGTCGGAGTCACCTAGTGCAG” the binding signal was 20700 fluorescence intensity (a.u.).
For “CTAAAATAATAATTAGCCGTAAATAGGAGCATCCATATCACGGAGTCACCTAGTGCAG”, the binding signal was 8820 fluorescence intensity (a.u.).
“TCTGGTTGATTGCTTCATTTTACTACGTCACATTTTAGTCCGGAGTCACCTAGTGCAG” was tested, and the binding signal was 42300 fluorescence intensity (a.u.).
For “TATAATTTAAAATGACATCAACCCCGTCACGACAAAGCGGCGGAGTCACCTAGTGCAG”, the binding signal was 31900 fluorescence intensity (a.u.).
With “TACAATCTGATTAATTAATTAGCACGGAAAATAATGTCAACGGAGTCACCTAGTGCAG” the binding signal was 59200 fluorescence intensity (a.u.).
For “TTAGCAAATTTAATCAGGGATCGATCGATATGGGGAGGTCCGGAGTCACCTAGTGCAG”, the binding signal was 6510 fluorescence intensity (a.u.).
In the case of “TGATAATTTTAAATTAAATAAGTAAATTTCAGAAAACTATCGGAGTCACCTAGTGCAG”, the binding signal was 29700 fluorescence intensity (a.u.).
For “ATTTCAAATTTTAATTTAACAATAACTGAAATTCACAATTCGGAGTCACCTAGTGCAG”, the binding signal was 14700 fluorescence intensity (a.u.).
In the case of “TGTCTGACAGGATCTAGTATGGCGCAAGATTTGTTGCCAGCGGAGTCACCTAGTGCAG”, the binding signal was 3540 fluorescence intensity (a.u.).
For “GTAAACTGAGTGTTACGATGATTCCATATCTGTCGTTTCGCGGAGTCACCTAGTGCAG”, the binding signal was 4610 fluorescence intensity (a.u.).
For “TTAAATCATAAATTATTGATTTTGACATGTAGCTTTATGCCGGAGTCACCTAGTGCAG”, the binding signal was 46700 fluorescence intensity (a.u.).
“GATATAGAATAAATTAGTACAAAACTGGGCAGTCGAAGGACGGAGTCACCTAGTGCAG” was tested, and the binding signal was 5410 fluorescence intensity (a.u.).
